According to PubChem BioAssay AID686979 (National Center for Advancing Translational Sciences (NCATS), 2013):
Values joined by “and” are separate entries in the source; they are usually repeats but may differ in a detail not shown here. Equal entries are not always repeated. In all, about 420,000 compounds went through this assay and about 50,000 (12%) were called active. The inconclusive results got no clear call from the source; some entries with a clear call stand among them for comparison. Calls come from the whole dose curve; as a rule, active = well fitted inhibition curve with a large enough effect; inconclusive = small, poorly fitted or top-dose-only effect; inactive = flat fitted curve, though single readings scatter. Potencies beside an inconclusive call are fits to weak or partial responses and may not hold up.
% is set by controls: 0 for no effect and ±100 for the full control effect; potency is the fitted concentration of half-maximal effect; tags give direction and shape of the fitted curve.

Assay: qHTS for Inhibitors of human tyrosyl-DNA phosphodiesterase 1 (TDP1): qHTS in cells in presence of CPT; note: nearly all actives have a fitted effect of over 55% in size
Settings: chicken DT40 Tdp1-/-;hTDP1 cells + 20 nM CPT, ATP luminescence, 48 h; activity change, negative = growth inhibition: at 46.2 µM (top of the series) unless noted
How it was run: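 Chicken DT40 Tdp1-/- cells complemented with human TDP1, 400 cells/well, exposed to compounds plus 20 nM camptothecin for at least 48 h at 37 C; viability read as ATP content by CellTiter-Glo luminescence.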
With `CCCOc1cccc(-c2nnc(NC(=O)c3ccco3)s2)c1` the Potency was inconclusive: 16.4 µM [inhibitor, single point]. In the case of `C=CCn1c(SC(C)C(=O)NCCC2=CCCCC2)nc2ccccc2c1=O` (stereo not drawn), the Potency was inconclusive: 29.1 µM [inhibitor, single point]. For `CCN(CC)CCCNC(=O)C1c2cc(OC)c(OC)cc2C(=O)N(C)C1c1cccnc1` (stereo not drawn), the Potency was “inactive”. For `CCOC(=O)C1(CCOc2ccccc2)CCN(Cc2cc(OC)c(O)cc2Cl)CC1`, the Potency was inconclusive: 23.1 µM [inhibitor, single point]. In the case of `COc1ccc(S(=O)(=O)Nc2nc3c(s2)CCCC3)cc1`, the Potency was inconclusive: 25.9 µM [inhibitor, single point]. For `CCOC(=O)c1nc(-c2ccc3c(c2)OCO3)[nH]c1C`, the Potency was inconclusive: 25.9 µM [inhibitor, single point]. In the case of `CCOC(=O)Cn1nnc2c(sc3nc4c(c(-c5ccccc5)c32)CCC4)c1=O`, the Potency was active: 20.6 µM. For `Cc1ccccc1NC(=O)Cc1nc(COC(=O)c2cccnc2Cl)cs1`, the Potency was “inactive”. In the case of `C[C@@H]1CN([C@@H](C)CO)C(=O)c2cc(NC(=O)c3ccncc3)ccc2O[C@@H](C)CCCCO[C@@H]1CN(C)C(=O)Cc1ccccc1`, the Potency was “inactive”. With `CCC(C)(CC(=O)O)CC(=O)Nc1cc(C(F)(F)F)cc(C(F)(F)F)c1` (stereo not drawn) the Potency was “inactive”. In the case of `CC1(C)Cc2cccc(OCC(=O)N3CCN(c4ccccc4F)CC3)c2O1`, the Potency was inconclusive: 13 µM [inhibitor, single point]. For `Cc1ccc2oc(-c3cc(NC(=O)/C=C/c4ccco4)ccc3Cl)nc2c1`, the Potency was inconclusive: 20.6 µM [inhibitor, single point]. With `Fc1ccc(CSc2nnc3ccccn23)c(Cl)c1` the Potency was “inactive”. In the case of `c1ccc2oc(-c3nn4c(Cn5cnc6ccccc65)nnc4s3)cc2c1`, the Potency was inconclusive: 29.1 µM [inhibitor, single point]. With `COc1ccc(-c2nncnn2)cc1` the Potency was inconclusive: 18.4 µM [inhibitor, single point]. In the case of `CNc1ccc(/C=C/c2ccccc2)cc1`, the Potency was inconclusive: 8.91 µM [inhibitor, partial curve]. For `Cc1ccc(-c2csc3nc(SCC(N)=O)n(Cc4ccccc4)c(=O)c23)cc1`, the Potency was inconclusive: 23.1 µM [inhibitor, single point]. With `N#CCCn1ccc(NC(=O)c2ccc(Cl)cc2)n1` the Potency was “inactive”. With `O=C(O)c1ccc(Cl)c(NC(=O)C2CCN(S(=O)(=O)c3ccc4c(c3)OCCO4)CC2)c1` the Potency was “inactive”. For `CCCn1c(O)c(N=N)c2ccccc21`, the Potency was “inactive”. With `O=C(c1ccc(F)cc1)n1cc(C(=S)N2CCOCC2)c2ccccc21` the Potency was inconclusive: 14.6 µM [inhibitor, single point]. For `CC(=O)N1CCN(c2ccc(NC(=O)c3ccc(N4CCCC4)c([N+](=O)[O-])c3)cc2Cl)CC1`, the Potency was inconclusive: 18.4 µM [inhibitor, single point]. For `Cc1onc(-c2ccccc2)c1NC(=O)N(Cc1ccccc1)C(C)C`, the Potency was “inactive”. With `CC1(C)CNC(=O)c2sc(NC(=O)c3ccccc3)nc2C1` the Potency was inconclusive: 10.3 µM [inhibitor, partial curve, poor fit]. With `CCN(CC(=O)Nc1ccc(NC(C)=O)cc1)C(=O)c1cccc(Oc2ccccc2)c1` the Potency was “inactive”. For `NN/C(=C\[N+](=O)[O-])Nc1ccccc1`, the Potency was inconclusive: 18.4 µM [inhibitor, partial curve]. In the case of `Cc1c(C2C(C#N)=C(N)N(c3ccccc3C#N)C3=C2C(=O)CCC3)cnn1C` (stereo not drawn), the Potency was “inactive”. For `COC(=O)c1cc(NC(=O)c2ccc(-c3ccc(Cl)cc3Cl)o2)cc(C(=O)OC)c1`, the Potency was “inactive”. With `COc1ccc(NC(=O)CCc2c(C)nc3c(-c4ccc(F)cc4)c(C)nn3c2C)c(OC)c1` the Potency was active: 23.1 µM. In the case of `C[C@@H]([C@H](O)c1ccccc1)N(C)C(=S)Nc1ccccc1`, the Potency was “inactive”. In the case of `Cc1ccccc1CN1CCCN(CC(=O)Nc2ccc3c(c2)OCCO3)S1(=O)=O`, the Potency was “inactive”. In the case of `CCCCOc1ccc(-c2nnn(CC(=O)NCc3ccco3)n2)cc1`, the Potency was active: 4.61 µM. For `CCOc1c(C)cnc2c1c(=O)n(Cc1c(F)cccc1Cl)c(=O)n2C`, the Potency was inconclusive: 20.6 µM [inhibitor, single point]. For `COc1ccccc1NC(=O)c1cc(S(=O)(=O)NCCC2=CCCCC2)ccc1F`, the Potency was active: 23.1 µM. In the case of `CCn1c(=O)cc(SCC(=O)N2CCN(c3ccccc3F)CC2)c2ccccc21`, the Potency was “inactive and inconclusive: 25.9 µM [inhibitor, single point]”. With `Cc1ccc(Cc2c(C(C)(C)C)nc3ccc(Br)cn23)cc1` the Potency was inconclusive: 29.1 µM [inhibitor, single point]. For `COC(=O)c1cc(S(=O)(=O)N2CCC(c3ccccc3)C2)c[nH]1` (stereo not drawn), the Potency was active: 23.1 µM. In the case of `O=C(CCCc1nc2ccccc2s1)N1CCN(c2ccccc2F)CC1`, the Potency was inconclusive: 16.4 µM [inhibitor, single point]. In the case of `CCC(=O)N1CCc2cc(S(=O)(=O)NCCc3ccc(S(N)(=O)=O)cc3)ccc21`, the Potency was “inactive”. In the case of `Cc1onc(-c2ccccc2Cl)c1C(=O)N1CCN(c2cccc(Cl)c2)CC1`, the Potency was active: 1.64 µM. With `O=C(NCCc1ccccc1)C1CCCN1C(=O)Nc1cccc(Cl)c1` (stereo not drawn) the Potency was inconclusive: 18.4 µM [inhibitor, single point]. With `CC(NC(=O)c1ccco1)C(c1cccs1)N1CCN(c2ccccc2F)CC1` (stereo not drawn) the Potency was inconclusive: 29.1 µM [inhibitor, single point]. For `O=C1OCCC1N1C(=O)c2ccccc2S1(=O)=O` (stereo not drawn), the Potency was “inactive”. For `CC(=O)Nc1cccc(-c2ccnc3c2CC(C(=O)NCC2CCOCC2)O3)c1` (stereo not drawn), the Potency was active: 2.59 µM. For `CCOc1ccc(NC(=O)CN2CCN(CC(=O)Nc3ccc(C(N)=O)cc3)CC2)cc1`, the Potency was “inactive”. In the case of `Cc1ccc(C(C)C)c(OCCOCCN2CCNCC2)c1`, the Potency was inconclusive: 18.4 µM [inhibitor, single point]. In the case of `COc1ccc(N(CC(=O)Nc2nc3ccc(C)cc3s2)S(=O)(=O)c2c(C)nn(C)c2C)cc1`, the Potency was inconclusive: 29.1 µM [inhibitor, single point]. With `O=C1Cc2ccccc2N1c1ccccc1` the Potency was “inactive”. With `COc1ccc(NC(=O)C(c2ccccc2)N2CCN(c3ccccn3)CC2)cc1Cl` (stereo not drawn) the Potency was active: 23.1 µM. For `COc1ccc(CN(C)C(=O)C(CCSC)NS(=O)(=O)c2ccc3c(c2)OCCO3)c(OC)c1OC` (stereo not drawn), the Potency was inconclusive: 29.1 µM [inhibitor, single point]. With `O=[N+]([O-])c1cccc(S(=O)(=O)N2CCCCC2c2cccnc2)c1` (stereo not drawn) the Potency was active: 20.6 µM. In the case of `CNC(=O)C1CCN(c2nc3ccccc3nc2C(F)(F)F)CC1`, the Potency was inconclusive: 20.6 µM [inhibitor, partial curve]. With `Cc1cc(O)ccc1Nc1nc(-c2cccnc2)cs1` the Potency was “inactive”. In the case of `O=C1Cc2ccccc2C(c2ccc(Cl)cc2)N1` (stereo not drawn), the Potency was inconclusive: 18.4 µM [inhibitor, partial curve]. For `CCN(CC)CC#CC(OC)(c1ccccc1)c1ccccc1`, the Potency was inconclusive: 25.9 µM [inhibitor, single point]. In the case of `O=C(Nc1cccc2ncccc12)c1ccc([N+](=O)[O-])o1`, the Potency was active: 11.6 µM. For `CCN(CC)C(=O)OCc1c(-c2ccccc2)ncc2ccccc12`, the Potency was inconclusive: 29.1 µM [inhibitor, single point]. For `O=C(c1ccc(Cl)cc1)c1oc2ccccc2c1CS(=O)(=O)c1ccccc1`, the Potency was inconclusive: 16.4 µM [inhibitor, single point]. In the case of `CCN1CCCC(NC(=O)c2scc3c2CCCC3)C1` (stereo not drawn), the Potency was inconclusive: 29.1 µM [inhibitor, single point]. With `Clc1ccc(C2[C@H]3CN(CC4CCCCC4)[C@H](c4ccccc4)C34CC2(c2cccnc2)C4)cn1` (stereo partly drawn) the Potency was inconclusive: 29.1 µM [inhibitor, single point]. In the case of `C/C(=N\Nc1nc2ccccc2[nH]1)c1ccc2c(c1)OCO2`, the Potency was active: 14.6 µM. In the case of `O=C(Nc1ccc(SC(F)F)cc1)c1ccc2nccnc2c1`, the Potency was inconclusive: 25.9 µM [inhibitor, single point]. In the case of `O=C(Nc1ccc(C(F)(F)F)cc1)N1CCC(N2CCCCC2)CC1`, the activity change, negative = growth inhibition was inconclusive: -33.1% [inhibitor]. For `Cc1nc(C(=O)NCc2ccccc2)sc1C1(C)CC(c2cccnc2)=NO1` (stereo not drawn), the Potency was inconclusive: 25.9 µM [inhibitor, single point]. In the case of `CCc1ccc(NC(=O)N2CCN(C(=O)c3nsc4ccccc34)CC2)cc1`, the Potency was inconclusive: 29.1 µM [inhibitor, single point]. With `COc1cc(OC)nc(Oc2cc(/C=N/O)ccc2OC)n1` the Potency was inconclusive: 20.6 µM [inhibitor, single point]. For `Brc1ccccc1C1=Nn2c(nnc2-c2ccccc2)SC1`, the Potency was inconclusive: 18.4 µM [inhibitor, single point]. In the case of `CNC(=O)c1ccc(CSc2nc3ccncc3n2Cc2ccc(C)cc2)cc1`, the Potency was inconclusive: 25.9 µM [inhibitor, single point]. In the case of `O=C(C1CCN(Cc2cc(Cl)ccc2O)CC1)N1CCN(Cc2ccccc2)CC1`, the Potency was inconclusive: 25.9 µM [inhibitor, partial curve]. With `Cc1c(C(=O)NC(=S)NCc2cccnc2)oc2ccccc12` the Potency was “inactive”. In the case of `COc1cccc(CNC(=O)c2cc3c(cc2Cl)N2CCCCCC2=NS3(=O)=O)c1`, the Potency was “inactive”. With `Cc1ccsc1CN1CCc2nc(N3CCN(c4ccccc4F)CC3)ncc2C1` the Potency was inconclusive: 20.6 µM [inhibitor, single point]. In the case of `COc1cc(Cl)c(C)cc1NC(=O)c1cnc2c(-c3cccc(C)c3)c(C)nn2c1C`, the Potency was inconclusive: 29.1 µM [inhibitor, single point].
